# Results from the supplement of paper PMC8728848.
# This is one part of the list.
# Tests used:
# Assay in all cases: glycan array binding signal (z-score within array); higher = stronger binding
# Settings in all cases: glycan notation: IUPAC condensed, linker removed
# [1] = target: Neu5Ac(a2-6)Gal(b1-4)GlcNAc(b1-2)Man(a1-3)[GlcNAc(b1-4)][Neu5Ac(a2-6)Gal(b1-4)GlcNAc(b1-2)Man(a1-6)]Man(b1-4)GlcNAc(b1-4)GlcNAc
# Method in brief: (§1)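 Columns mapping to the same glycan were averaged after glycan names were converted to IUPAC-condensed notation. The data come from 3228 arrays in the Consortium for Functional Glycomics database, limited to those with an available protein sequence. Binding is reported as a within-array Z-score averaged across arrays of one protein sequence and across linkers.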
# [2] = target: Neu5Ac(a2-6)Gal(b1-4)GlcNAc(b1-2)Man(a1-3)[Man(a1-6)]Man(b1-4)GlcNAc(b1-4)GlcNAc
# Method in brief: as §1
# [3] = target: Neu5Ac(a2-6)Gal(b1-4)GlcNAc(b1-2)Man(a1-3)[Neu5Ac(a2-3)Gal(b1-4)GlcNAc(b1-2)Man(a1-6)]Man(b1-4)GlcNAc(b1-4)GlcNAc
# Method in brief: as §1
# [4] = target: Neu5Ac(a2-6)Gal(b1-4)GlcNAc(b1-2)Man(a1-3)[Neu5Ac(a2-6)Gal(b1-4)GlcNAc(b1-2)Man(a1-6)]Man(b1-4)GlcNAc(b1-4)GlcNAc
# Method in brief: as §1
# [5] = target: Neu5Ac(a2-6)Gal(b1-4)GlcNAc(b1-2)Man(a1-3)[Neu5Ac(a2-6)Gal(b1-4)GlcNAc(b1-2)Man(a1-6)]Man(b1-4)GlcNAc(b1-4)[Fuc(a1-6)]GlcNAc
# Method in brief: as §1
# [6] = target: Neu5Ac(a2-6)Gal(b1-4)GlcNAc(b1-2)Man(a1-6)Man(b1-4)GlcNAc(b1-4)GlcNAc
# Method in brief: as §1
# [7] = target: Neu5Ac(a2-6)Gal(b1-4)GlcNAc(b1-2)Man(a1-6)[Gal(b1-4)GlcNAc(b1-2)Man(a1-3)]Man(b1-4)GlcNAc(b1-4)GlcNAc
# Method in brief: as §1
# [8] = target: Neu5Ac(a2-6)Gal(b1-4)GlcNAc(b1-2)Man(a1-6)[GlcNAc(b1-2)Man(a1-3)]Man(b1-4)GlcNAc(b1-4)GlcNAc
# Method in brief: as §1
# [9] = target: Neu5Ac(a2-6)Gal(b1-4)GlcNAc(b1-2)Man(a1-6)[Man(a1-3)]Man(b1-4)GlcNAc(b1-4)GlcNAc
# Method in brief: as §1
# [10] = target: Neu5Ac(a2-6)Gal(b1-4)GlcNAc(b1-2)[Neu5Ac(a2-6)Gal(b1-4)GlcNAc(b1-4)]Man(a1-3)[GlcNAc(b1-4)][Neu5Ac(a2-6)Gal(b1-4)GlcNAc(b1-2)[Neu5Ac(a2-6)Gal(b1-4)GlcNAc(b1-6)]Man(a1-6)]Man(b1-4)GlcNAc(b1-4)GlcNAc
# Method in brief: as §1
# [11] = target: Neu5Ac(a2-6)Gal(b1-4)GlcNAc(b1-2)[Neu5Ac(a2-6)Gal(b1-4)GlcNAc(b1-4)]Man(a1-3)[GlcNAc(b1-4)][Neu5Ac(a2-6)Gal(b1-4)GlcNAc(b1-4)Man(a1-6)]Man(b1-4)GlcNAc(b1-4)GlcNAc
# Method in brief: as §1
# [12] = target: Neu5Ac(a2-6)Gal(b1-4)GlcNAc(b1-2)[Neu5Ac(a2-6)Gal(b1-4)GlcNAc(b1-6)]Man(a1-6)[Neu5Ac(a2-6)Gal(b1-4)GlcNAc(b1-2)Man(a1-3)][GlcNAc(b1-4)]Man(b1-4)GlcNAc(b1-4)GlcNAc
# Method in brief: as §1
# [13] = target: Neu5Ac(a2-6)Gal(b1-4)GlcNAc(b1-3)Gal(b1-3)GlcNAc
# Method in brief: as §1
# [14] = target: Neu5Ac(a2-6)Gal(b1-4)GlcNAc(b1-3)Gal(b1-4)GlcNAc
# Method in brief: as §1
# [15] = target: Neu5Ac(a2-6)Gal(b1-4)GlcNAc(b1-3)Gal(b1-4)GlcNAc(b1-2)Man(a1-3)[Neu5Ac(a2-6)Gal(b1-4)GlcNAc(b1-3)Gal(b1-4)GlcNAc(b1-2)Man(a1-6)]GalNAc
# Method in brief: as §1
# [16] = target: Neu5Ac(a2-6)Gal(b1-4)GlcNAc(b1-3)Gal(b1-4)GlcNAc(b1-3)Gal(b1-4)GlcNAc
# Method in brief: as §1
# [17] = target: Neu5Ac(a2-6)Gal(b1-4)GlcNAc(b1-3)Gal(b1-4)GlcNAc(b1-3)Gal(b1-4)GlcNAc(b1-2)Man(a1-3)[Neu5Ac(a2-6)Gal(b1-4)GlcNAc(b1-3)Gal(b1-4)GlcNAc(b1-3)Gal(b1-4)GlcNAc(b1-2)Man(a1-6)]GalNAc
# Method in brief: as §1
# [18] = target: Neu5Ac(a2-6)Gal(b1-4)GlcNAc(b1-3)Gal(b1-4)GlcNAc(b1-3)GalNAc
# Method in brief: as §1
# [19] = target: Neu5Ac(a2-6)Gal(b1-4)GlcNAc(b1-3)Gal(b1-4)GlcNAc(b1-3)[Neu5Ac(a2-6)Gal(b1-4)GlcNAc(b1-3)Gal(b1-4)GlcNAc(b1-6)]GalNAc
# Method in brief: as §1
# [20] = target: Neu5Ac(a2-6)Gal(b1-4)GlcNAc(b1-3)Gal(b1-4)GlcNAc(b1-6)[Gal(b1-3)]GalNAc
# Method in brief: as §1
# [21] = target: Neu5Ac(a2-6)Gal(b1-4)GlcNAc(b1-3)Gal(b1-4)[Fuc(a1-3)]GlcNAc(b1-3)Gal(b1-4)[Fuc(a1-3)]GlcNAc
# Method in brief: as §1
# [22] = target: Neu5Ac(a2-6)Gal(b1-4)GlcNAc(b1-3)GalNAc
# Method in brief: as §1
# [23] = target: Neu5Ac(a2-6)Gal(b1-4)GlcNAc(b1-3)[Neu5Ac(a2-6)Gal(b1-4)GlcNAc(b1-6)]GalNAc
# Method in brief: as §1
# [24] = target: Neu5Ac(a2-6)Gal(b1-4)GlcNAc(b1-6)GalNAc
# Method in brief: as §1
# [25] = target: Neu5Ac(a2-6)Gal(b1-4)GlcNAc(b1-6)[Gal(b1-3)GlcNAc(b1-3)]Gal(b1-4)Glc
# Method in brief: as §1
# [26] = target: Neu5Ac(a2-6)Gal(b1-4)GlcNAc(b1-6)[Gal(b1-3)]GalNAc
# Method in brief: as §1
# [27] = target: Neu5Ac(a2-6)Gal(b1-4)GlcNAc6S
# Method in brief: as §1
# [28] = target: Neu5Ac(a2-6)GalNAc
# Method in brief: as §1
# [29] = target: Neu5Ac(a2-6)GalNAc(b1-4)GlcNAc
# Method in brief: as §1
# [30] = target: Neu5Ac(a2-6)GalNAc(b1-4)GlcNAc6S
# Method in brief: as §1
# [31] = target: Neu5Ac(a2-6)GlcNAc(b1-4)GlcNAc
# Method in brief: as §1
binder,measurement,setting,value
"CC1G-11630 (Coprinopsis cinerea), A8P462 (protein) MTTEAKIKLKAVVYWELVFDYDNSSNTGEITQSYTVKISQTSTRSTFASEVSTTTIDTLTKNNQEVDVGASYGAISANVSASWEHSEEVNNMLEKTTQTSTEDTYTVETEETRSYTIGPGGMLSLFQKHFSGPGMHVAFDVFTTDLELAKERTEIDIDVDVEAIRFVREIRVVYTDIMSEAPGDHVREINGKNPDINYGFNGKFVWLVPEQTRKTAQALTNVEFVSQAESDDRYWDLAAGAGGSNRYLIPVYDTNNKDKIYELALWRSDSYITHDKVKAAGWSGTTGDINSGRGGTYLNLVWKTRHAY",glycan array binding signal (z-score),[1],0.972
same,glycan array binding signal (z-score),[2],-0.125
same,glycan array binding signal (z-score),[3],-0.644
same,glycan array binding signal (z-score),[4],-0.625
same,glycan array binding signal (z-score),[5],0.186
same,glycan array binding signal (z-score),[6],-0.588
same,glycan array binding signal (z-score),[7],15.9
same,glycan array binding signal (z-score),[8],-0.308
same,glycan array binding signal (z-score),[9],-0.622
same,glycan array binding signal (z-score),[10],-0.325
same,glycan array binding signal (z-score),[11],-0.402
same,glycan array binding signal (z-score),[12],-0.523
same,glycan array binding signal (z-score),[13],-0.572
same,glycan array binding signal (z-score),[14],-0.292
same,glycan array binding signal (z-score),[15],0.056
same,glycan array binding signal (z-score),[16],-0.463
same,glycan array binding signal (z-score),[17],2.1
same,glycan array binding signal (z-score),[18],-0.237
same,glycan array binding signal (z-score),[19],-0.124
same,glycan array binding signal (z-score),[20],0.078
same,glycan array binding signal (z-score),[21],-0.27
same,glycan array binding signal (z-score),[22],0.496
same,glycan array binding signal (z-score),[23],0.001
same,glycan array binding signal (z-score),[24],2.18
same,glycan array binding signal (z-score),[25],-0.688
same,glycan array binding signal (z-score),[26],0.527
same,glycan array binding signal (z-score),[27],-0.166
same,glycan array binding signal (z-score),[28],-0.508
same,glycan array binding signal (z-score),[29],-0.502
same,glycan array binding signal (z-score),[30],0.523
same,glycan array binding signal (z-score),[31],-0.717
